Experimental data as given in US12551573B2, “Compositions and methods for the targeting of PCSK9” (Scribe Therapeutics Inc., priority 2022, dated 2026).

test system: HBEGF locus; format: cell-based, human; conditions: high-throughput screen of dXR repression of the HBEGF gene; abundance of each domain in the library before and after diphtheria toxin selection; HEK293T cells

Row | Molecule | Log2 (fold change)
1 | DOMAIN_13987 (protein, listed as Myotis lucifugus) LQESVTFKDVAVLFTQDEWAQLSPAQRALYRDVMLENYSHLVSLGLLGPKPDLFAQLGKGEEWTPEDTSRGFCLDWMTIPV | 3.0633
2 | DOMAIN_13859 (protein, listed as Macaca fascicularis) ALRSVMFSDVSIDFSPEEWEYLDLEQKDLYRDVMLENYSNLVSLGCFISKPDVISLLEQGKEPWKVVRKGRRQYPDLETKY | 2.2006
3 | DOMAIN_13783 (protein, listed as Macaca fascicularis) KPRTVSFADVAVYFSREEWGCLRPAQRALYRDVMRETYGHLGALGVGGSKPALISWVEEEAELWDPAAQDPEVTKCPTETD | 2.5821
4 | DOMAIN_14083 (protein, Phyllostomus discolor) YKESVMFRDVAVDFSQEEWECLDPAQRDLYRDVMLENYSNLLSMGLYIPKPQVISLLEQGKEPWMVGRELTRGLCSDLESM | 2.7465
5 | DOMAIN_13733 (protein, listed as Sapajus apella) SQELLTFKDISIDFTQEEWGQLTPAHQNLYREVMLENYSNLVSVAGYQLSKPVVISQLEKGEEPWMTEKEGPGDPSSDLKS | 3.3285
6 | DOMAIN_13832 (protein, listed as Phascolarctos cinereus) PRGLVTFKDVAVDFTQEEWGLLDHNQKELYKEVMLENARNLLSLGLPVPREDVISYFEQREAPWMLEQEGLRSRCLEGEIR | 2.9705
7 | DOMAIN_13705 (protein, Phyllostomus discolor) SQPPVSFKDVVVSFTREEWGQLDTVQRTLYRDVTLETCGHLVSLGLLLPNLDVISHLENGEDPWRAEQEPPTQDWKTTLEK | 2.496
8 | DOMAIN_13984 (protein, listed as Phascolarctos cinereus) SQIPLTFQDVAVDFTWEEWGLLEPSQKDMYWDVMLENYENFVSLGGLPICLPDVISRMERIEAPWMAEGGVLVSTFLGSLS | 2.8513
9 | DOMAIN_14031 (protein, Phyllostomus discolor) IGSDLFRDVAVVFSREEWEQLTPAQRDLYRDVMLEIYSILLSLGPDLAVSKPDVISFLEQGKEPWRVEEAVTGGLCPVLES | 3.0963
10 | DOMAIN_13805 (protein, listed as Lynx canadensis) RPESVTFEDVAVYFSENEWIGLAPAQRVLYRDVMLENYGVVASLAFPFPKPALISQLERGEAPWCKAPQGALDGECPRGVS | 3.1769
11 | DOMAIN_13722 (protein, listed as Phascolarctos cinereus) PQESVTFEDVAVDFTWEEWGYLDTSQKELYWEVMLENYKNLVSLGFVVAKPDAISQLEQEEAPWRPEVLFPRSSCSDLDTK | 2.4814
12 | DOMAIN_14040 (protein, listed as Phascolarctos cinereus) ARGPVSFADVAVYFSPEEWGRLRPAQRALYRDVMRETYGHLGALGFPGPKPALMCWMDEETEVWGPDARDPEEAGEKGTEN | 3.0933
13 | DOMAIN_13830 (protein, listed as Phascolarctos cinereus) PQEAVTFKDVVVDFTQEEWKCLDSSQKEFYRDVMLENYSNLVSLGLAFPKPYVIDQLERREAPWIPEGDIPRISHPERKKK | 2.6435
14 | DOMAIN_13915 (protein, Muntiacus muntjak) PQEPVTFADVAVLFTPEEWLFLDSAQKSLYRDVMLENYRNLASVGDQLCKTRMSSHMEQREELCVTERGVFPGAHLGPHLQ | 2.8554
15 | DOMAIN_13958 (protein, listed as Phascolarctos cinereus) FQESVTFKDVAVDFTWEEWGYLDTSQKELYWEVMLENYRNLVSLGLADSNVNMISQLESGEAHGISVDSVLRSCWPDGDTR | 3.2926
16 | DOMAIN_14049 (protein, listed as Phascolarctos cinereus) PQESVTFKDVAVDFTWEEWGYLDTSQKELYWEVMLENYRNLVSLGLADSNVDMISQLESGEAQGIPVDSVLTSCWPDGDRR | 2.7761

Row | Molecule | Log2 (fold change)
17 | DOMAIN_14041 (protein, listed as Phascolarctos cinereus) QDLVTFKDVSVDFTREEWMRLDHPQRALYRDVMLENYRNLVLVSLGHPISKPDVISRLEQGGVPWVLKKGATGRAFSDRET | 2.9069
18 | DOMAIN_13970 (protein, listed as Lynx canadensis) GPWTLLTFRDVAIEFSQEEWGCLNHSQRELYRDVMLETYGHLLFLGLVSKPDLVILLEQKKELWGVKRKETVASHPGRWEI | 2.89
19 | DOMAIN_13979 (protein, listed as Macaca fascicularis) FQGSVTFEDVAIAFSQQEWESLDSSQRGLYRDVMLENYRNLVSMGHSLSKPHVIALLERWKEPKVTDRKDGRRWCTDLQLE | 2.6188
20 | DOMAIN_13878 (protein, listed as Ailuropoda melanoleuca) SKVPVTFGDLAIYFSQEEWEWLSPIQKDLYEDVMLENYQNLVSLGLSFRRPNVITLLEKGKAPWMVEPVRKRRGVDSGSKC | 4.3232
21 | DOMAIN_13851 (protein, listed as Canis lupus) SHGPLSFEDVAVAFTKEEWQQLDPAQRTLYRDVMLENFSHLVSLGHPVSKPDVISKLEQGEEPWIIKRDIPNWIYPERENR | 2.6472
22 | DOMAIN_13723 (protein, listed as Phascolarctos cinereus) QEDPVTFQDVAVVFTQEQWGYLDPSQKELYRDVMLENYQNLLCLGLAVSKPEVICQLEQGEAPWRPEGRVPGSSHPDGEVR | 2.9677
23 | DOMAIN_13664 (protein, listed as Macaca fascicularis) AQESVMFSDVSIDFSQEEWECLNDDQRDLYRDVMLENYSNLVSMGHSISKPNVISYLEQGKEPWLVDRELTRGQWPVLESR | 2.7443
24 | DOMAIN_13703 (protein, listed as Lynx canadensis) KPGALSFADVAVYFSSEEWGCLRPAQRALYRDVMRETYGHLGALGFAGPKPALISWMERKKEAWSPEAEDPEDRASRIRAK | 3.7947
25 | DOMAIN_13823 (protein, listed as Macaca fascicularis) KPGAVSFADVAVYFSPEEWGCLRPAQRALYRDVMRETYGHLGALGFPGPKPALISWMEQETEAWSPAAQDPEKGERLGGAR | 4.219
26 | DOMAIN_13910 (protein, listed as Bos mutus) KPLAVRFADVAVYFSPEEWGCLRPAQRALYRDVMQETYGHLGALGFPGPKPALISWMEQESEAWSPAAQDPEEGESLGGAL | 2.9556
27 | DOMAIN_14013 (protein, listed as Ailuropoda melanoleuca) MTFEDVAVEFTQWEWGQLDPAQQDLYREVMLENFKNLASLGLPVSKPYVITQLEEGKDPCVLDGEISTEYLSPPPDWEKRP | 2.4619
28 | DOMAIN_13843 (protein, listed as Phascolarctos cinereus) GQESVTFTDVAVDFTLEEWAYLDHFQKELYKDVMLENYRNLLCLGLAVSKPDVISQLEQGDAPWMSEGGVPRSIYSDWETR | 3.6119
29 | DOMAIN_14069 (protein, listed as Lynx canadensis) AQKSLTLEDVAVDFSREEWRLLAPAQKDLYRDVMLENYRNLVSVGHQASKPDVLAKLERGEEPWAIEEEVRSGTSPETGKV | 2.9182
30 | DOMAIN_13907 (protein, listed as Phascolarctos cinereus) MQESVTFKDVAVDFTQEEWKQLDPAQRDLYRDVMLENYRNLVSLGLPVFKPDVISQLEKGEAPWTPEVPRSTCSGSFSQEA | 2.4263
31 | DOMAIN_13880 (protein, listed as Lynx canadensis) RPRAVKFADVAVYFSTEEWGCLRPAQRALYRDVMRETYGHLGALGCAGPKPALISWLERNTDDWEPAALDPQECPRGVAVQ | 3.0991
32 | DOMAIN_13981 (protein, listed as Phascolarctos cinereus) QNPVTFRDVAVDFSLEEWKCLSPAQRALYRDVMLENYENLASVGPRLPFSKPYVISQLERGEAPWMPEEEVPRDHWPDLFN | 2.8041

same assay, conditions: high-throughput screen of dXR repression of the HBEGF gene; change in abundance of each domain in the library before and after diphtheria toxin selection

Row | Molecule | Log2 (fold change)
33 | DOMAIN_19949 (protein, listed as Callorhinus ursinus) AEGHVTFEDVAVYFSWEEWGLLDEAQRLLYRDVMLENLALMASLGLASSRTHEITQLEWWREPFLPPCGVVTAAMPRGWRR | 3.2903
34 | DOMAIN_19892 (protein, listed as Ursus maritimus) VQSHVVFEDVAIYFSQEEWGLLDEAQRFLYHAVMLENFALLSSLGCWHGAQDEQALSEQGVSVGGSQVRTPKPAPSIQKSQ | 3.1396

same assay, conditions: repressor domain in dXR, repression of the HBEGF gene; abundance of domain in library after vs before diphtheria toxin selection

Row | Molecule | Log2 (fold change)
35 | DOMAIN_13650 (protein, listed as Ailuropoda melanoleuca) RPGAVSFADVAVYFSPEEWGCLRPAQRALYRDVMRETYGHLGALGFAGPKPALISWLERKKEVWSPEAEDPEEGARHPGSG | 3.8556
